From the supplement of paper PMC8728848
The other results are listed elsewhere or left out.

How the values were obtained:
Experiment in all cases: glycan array binding signal (z-score within array); higher = stronger binding
Conditions in all cases: glycan notation: IUPAC condensed, linker removed
Fuc(a1-2)Gal = target: Fuc(a1-2)Gal
Procedure, shortened: (§1)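 The binding signal is a Z-score computed within each array and averaged over linkers. Arrays of the same protein sequence at different concentrations or buffers were also averaged together. Data originate from 3228 arrays in the Consortium for Functional Glycomics database, kept only where the protein sequence was available.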

Fuc(a1-2)Gal(b1-3)GalNAc = target: Fuc(a1-2)Gal(b1-3)GalNAc
Procedure, shortened: as §1

[1] = target: Fuc(a1-2)Gal(b1-3)GalNAc(a1-3)[Fuc(a1-2)]Gal(b1-4)Glc
Procedure, shortened: as §1

[2] = target: Fuc(a1-2)Gal(b1-3)GalNAc(a1-3)[Fuc(a1-2)]Gal(b1-4)GlcNAc
Procedure, shortened: as §1

[3] = target: Fuc(a1-2)Gal(b1-3)GalNAc(b1-3)Gal
Procedure, shortened: as §1

[4] = target: Fuc(a1-2)Gal(b1-3)GalNAc(b1-3)Gal(a1-4)Gal(b1-4)Glc
Procedure, shortened: as §1

[5] = target: Fuc(a1-2)Gal(b1-3)GalNAc(b1-4)[Neu5Ac(a2-3)]Gal(b1-4)Glc
Procedure, shortened: as §1

Fuc(a1-2)Gal(b1-3)GlcNAc = target: Fuc(a1-2)Gal(b1-3)GlcNAc
Procedure, shortened: as §1

[6] = target: Fuc(a1-2)Gal(b1-3)GlcNAc(b1-2)Man(a1-3)[Fuc(a1-2)Gal(b1-3)GlcNAc(b1-2)Man(a1-6)]Man(b1-4)GlcNAc(b1-4)GlcNAc
Procedure, shortened: as §1

[7] = target: Fuc(a1-2)Gal(b1-3)GlcNAc(b1-3)Gal(b1-4)Glc
Procedure, shortened: as §1

[8] = target: Fuc(a1-2)Gal(b1-3)GlcNAc(b1-3)[Fuc(a1-3)[Gal(b1-4)]GlcNAc(b1-6)]Gal(b1-4)Glc
Procedure, shortened: as §1

[9] = target: Fuc(a1-2)Gal(b1-3)[Fuc(a1-4)]GlcNAc
Procedure, shortened: as §1

[10] = target: Fuc(a1-2)Gal(b1-3)[Fuc(a1-4)]GlcNAc(b1-2)Man(a1-3)[Fuc(a1-2)Gal(b1-3)[Fuc(a1-4)]GlcNAc(b1-2)Man(a1-6)]Man(b1-4)GlcNAc(b1-4)GlcNAc
Procedure, shortened: as §1

[11] = target: Fuc(a1-2)Gal(b1-3)[Fuc(a1-4)]GlcNAc(b1-3)[Fuc(a1-3)[Gal(b1-4)]GlcNAc(b1-6)]Gal(b1-4)Glc
Procedure, shortened: as §1

[12] = target: Fuc(a1-2)Gal(b1-3)[Fuc(a1-4)]GlcNAc(b1-3)[Gal(b1-4)GlcNAc(b1-6)]Gal(b1-4)Glc
Procedure, shortened: as §1

Fuc(a1-2)Gal(b1-4)Glc = target: Fuc(a1-2)Gal(b1-4)Glc
Procedure, shortened: as §1

Fuc(a1-2)Gal(b1-4)Glc6S = target: Fuc(a1-2)Gal(b1-4)Glc6S
Procedure, shortened: as §1

Fuc(a1-2)Gal(b1-4)GlcNAc = target: Fuc(a1-2)Gal(b1-4)GlcNAc
Procedure, shortened: as §1

[13] = target: Fuc(a1-2)Gal(b1-4)GlcNAc(b1-2)Man(a1-3)[Fuc(a1-2)Gal(b1-4)GlcNAc(b1-2)Man(a1-6)]Man(b1-4)GlcNAc(b1-4)GlcNAc
Procedure, shortened: as §1

[14] = target: Fuc(a1-2)Gal(b1-4)GlcNAc(b1-3)Gal(b1-4)GlcNAc
Procedure, shortened: as §1

[15] = target: Fuc(a1-2)Gal(b1-4)GlcNAc(b1-3)Gal(b1-4)GlcNAc(b1-3)Gal(b1-4)GlcNAc
Procedure, shortened: as §1

[16] = target: Fuc(a1-2)Gal(b1-4)GlcNAc(b1-3)GalNAc
Procedure, shortened: as §1

[17] = target: Fuc(a1-2)Gal(b1-4)GlcNAc6S
Procedure, shortened: as §1

[18] = target: Fuc(a1-2)Gal(b1-4)[Fuc(a1-3)]GlcNAc
Procedure, shortened: as §1

[19] = target: Fuc(a1-2)Gal(b1-4)[Fuc(a1-3)]GlcNAc(b1-2)Man(a1-3)[Fuc(a1-2)Gal(b1-4)[Fuc(a1-3)]GlcNAc(b1-2)Man(a1-6)]Man(b1-4)GlcNAc(b1-4)GlcNAc
Procedure, shortened: as §1

[20] = target: Fuc(a1-2)Gal(b1-4)[Fuc(a1-3)]GlcNAc(b1-3)Gal(b1-4)[Fuc(a1-3)]GlcNAc
Procedure, shortened: as §1

[21] = target: Fuc(a1-2)Gal(b1-4)[Fuc(a1-3)]GlcNAc(b1-3)Gal(b1-4)[Fuc(a1-3)]GlcNAc(b1-3)Gal(b1-4)[Fuc(a1-3)]GlcNAc
Procedure, shortened: as §1

Fuc(a1-2)Gal6S(b1-4)Glc = target: Fuc(a1-2)Gal6S(b1-4)Glc
Procedure, shortened: as §1

[22] = target: Fuc(a1-2)Gal6S(b1-4)Glc6S
Procedure, shortened: as §1

[23] = target: Fuc(a1-2)Gal6S(b1-4)GlcNAc
Procedure, shortened: as §1

B1: Tachylectin-2 (Tachypleus tridentatus), TAL2_TACTR (protein)
chain: VGGESMLRGVYQDKFYQGTYPQNKNDNWLARATLIGKGGWSNFKFLFLSPGGELYGVLNDKIYKGTPPTHDNDNWMGRAKKIGNGGWNQFQFLFFDPNGYLYAVSKDKLYKASPPQSDTDNWIARATEIGSGGWSGFKFLFFHPNGYLYAVHGQQFYKALPPVSNQDNWLARATKIGQGGWDTFKFLFFSSVGTLFGVQGGKFYEDYPPSYAHDNWLARAKLIGNGGWDDFRFLFF
For B1, the “glycan array binding signal (z-score)” value (Fuc(a1-2)Gal) was -0.163, the “glycan array binding signal (z-score)” value (Fuc(a1-2)Gal(b1-3)GalNAc) was -0.238 and the “glycan array binding signal (z-score)” value [1] was -0.293. For the same binder, the “glycan array binding signal (z-score)” value [2] was -0.286, the “glycan array binding signal (z-score)” value [3] was -0.277 and the “glycan array binding signal (z-score)” value [4] was -0.363. The “glycan array binding signal (z-score)” value [5] was -0.351, the “glycan array binding signal (z-score)” value (Fuc(a1-2)Gal(b1-3)GlcNAc) was -0.312 and the “glycan array binding signal (z-score)” value [6] was -0.293. The “glycan array binding signal (z-score)” value [7] was -0.335, the “glycan array binding signal (z-score)” value [8] was -0.295 and the “glycan array binding signal (z-score)” value [9] was -0.362. The “glycan array binding signal (z-score)” value [10] was -0.284, the “glycan array binding signal (z-score)” value [11] was -0.294 and the “glycan array binding signal (z-score)” value [12] was -0.295. The “glycan array binding signal (z-score)” value (Fuc(a1-2)Gal(b1-4)Glc) was -0.347, the “glycan array binding signal (z-score)” value (Fuc(a1-2)Gal(b1-4)Glc6S) was -0.316 and the “glycan array binding signal (z-score)” value (Fuc(a1-2)Gal(b1-4)GlcNAc) was -0.309. For the same binder, the “glycan array binding signal (z-score)” value [13] was -0.297, the “glycan array binding signal (z-score)” value [14] was -0.221 and the “glycan array binding signal (z-score)” value [15] was -0.238. The “glycan array binding signal (z-score)” value [16] was -0.291, the “glycan array binding signal (z-score)” value [17] was -0.324 and the “glycan array binding signal (z-score)” value [18] was -0.248. For the same binder, the “glycan array binding signal (z-score)” value [19] was -0.285, the “glycan array binding signal (z-score)” value [20] was -0.389 and the “glycan array binding signal (z-score)” value [21] was -0.335. The “glycan array binding signal (z-score)” value (Fuc(a1-2)Gal6S(b1-4)Glc) was -0.041, the “glycan array binding signal (z-score)” value [22] was -0.291 and the “glycan array binding signal (z-score)” value [23] was -0.393.
